Reference: the supplement of paper PMC8728848
Some of the results follow.

How the values were obtained:
Experiment in all cases: glycan array binding signal (z-score within array); higher = stronger binding
Conditions in all cases: glycan notation: IUPAC condensed, linker removed
[1] = target: Neu5Ac(a2-3)Gal(b1-3)]Neu5Ac(a2-3)Gal(b1-4)]GlcNAc
In short: (§1)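 Arrays were curated from the Consortium for Functional Glycomics database, 3228 in total, and kept only where the protein sequence was available. Binding is expressed as a within-array Z-score. This score was averaged across arrays of the same protein sequence at different concentrations or buffers and across linkers, and negative values can be read as non-binding.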

Neu5Ac(a2-3)Gal(b1-4)Glc = target: Neu5Ac(a2-3)Gal(b1-4)Glc
In short: as §1

[2] = target: Neu5Ac(a2-3)Gal(b1-4)GlcNAc
In short: as §1

[3] = target: Neu5Ac(a2-3)Gal(b1-4)GlcNAc(b1-2)Man
In short: as §1

[4] = target: Neu5Ac(a2-3)Gal(b1-4)GlcNAc(b1-2)Man(a1-3)[GlcNAc(b1-4)][Neu5Ac(a2-3)Gal(b1-4)GlcNAc(b1-2)Man(a1-6)]Man(b1-4)GlcNAc(b1-4)GlcNAc
In short: as §1

[5] = target: Neu5Ac(a2-3)Gal(b1-4)GlcNAc(b1-2)Man(a1-3)[Neu5Ac(a2-3)Gal(b1-4)GlcNAc(b1-2)Man(a1-6)]Man(b1-4)GlcNAc(b1-4)GlcNAc
In short: as §1

[6] = target: Neu5Ac(a2-3)Gal(b1-4)GlcNAc(b1-2)Man(a1-3)[Neu5Ac(a2-3)Gal(b1-4)GlcNAc(b1-2)Man(a1-6)]Man(b1-4)GlcNAc(b1-4)[Fuc(a1-6)]GlcNAc
In short: as §1

[7] = target: Neu5Ac(a2-3)Gal(b1-4)GlcNAc(b1-2)Man(a1-3)[Neu5Ac(a2-6)Gal(b1-4)GlcNAc(b1-2)Man(a1-6)]Man(b1-4)GlcNAc(b1-4)GlcNAc
In short: as §1

[8] = target: Neu5Ac(a2-3)Gal(b1-4)GlcNAc(b1-2)[Neu5Ac(a2-3)Gal(b1-4)GlcNAc(b1-4)]Man(a1-3)[GlcNAc(b1-4)][Neu5Ac(a2-3)Gal(b1-4)GlcNAc(b1-2)[Neu5Ac(a2-3)Gal(b1-4)GlcNAc(b1-6)]Man(a1-6)]Man(b1-4)GlcNAc(b1-4)GlcNAc
In short: as §1

[9] = target: Neu5Ac(a2-3)Gal(b1-4)GlcNAc(b1-2)[Neu5Ac(a2-3)Gal(b1-4)GlcNAc(b1-4)]Man(a1-3)[GlcNAc(b1-4)][Neu5Ac(a2-3)Gal(b1-4)GlcNAc(b1-4)Man(a1-6)]Man(b1-4)GlcNAc(b1-4)GlcNAc
In short: as §1

[10] = target: Neu5Ac(a2-3)Gal(b1-4)GlcNAc(b1-2)[Neu5Ac(a2-3)Gal(b1-4)GlcNAc(b1-6)]Man(a1-6)[Neu5Ac(a2-3)Gal(b1-4)GlcNAc(b1-2)Man(a1-3)]Man(b1-4)GlcNAc(b1-4)GlcNAc
In short: as §1

[11] = target: Neu5Ac(a2-3)Gal(b1-4)GlcNAc(b1-2)[Neu5Ac(a2-3)Gal(b1-4)GlcNAc(b1-6)]Man(a1-6)[Neu5Ac(a2-3)Gal(b1-4)GlcNAc(b1-2)Man(a1-3)][GlcNAc(b1-4)]Man(b1-4)GlcNAc(b1-4)GlcNAc
In short: as §1

[12] = target: Neu5Ac(a2-3)Gal(b1-4)GlcNAc(b1-3)Gal
In short: as §1

[13] = target: Neu5Ac(a2-3)Gal(b1-4)GlcNAc(b1-3)Gal(b1-3)GlcNAc
In short: as §1

[14] = target: Neu5Ac(a2-3)Gal(b1-4)GlcNAc(b1-3)Gal(b1-4)GlcNAc
In short: as §1

[15] = target: Neu5Ac(a2-3)Gal(b1-4)GlcNAc(b1-3)Gal(b1-4)GlcNAc(b1-2)Man(a1-3)[Neu5Ac(a2-3)Gal(b1-4)GlcNAc(b1-3)Gal(b1-4)GlcNAc(b1-2)Man(a1-6)]Man(b1-4)GlcNAc(b1-4)GlcNAc
In short: as §1

[16] = target: Neu5Ac(a2-3)Gal(b1-4)GlcNAc(b1-3)Gal(b1-4)GlcNAc(b1-3)Gal(b1-4)GlcNAc
In short: as §1

[17] = target: Neu5Ac(a2-3)Gal(b1-4)GlcNAc(b1-3)Gal(b1-4)GlcNAc(b1-3)Gal(b1-4)GlcNAc(b1-2)Man(a1-3)[Neu5Ac(a2-3)Gal(b1-4)GlcNAc(b1-3)Gal(b1-4)GlcNAc(b1-3)Gal(b1-4)GlcNAc(b1-2)Man(a1-6)]GalNAc
In short: as §1

[18] = target: Neu5Ac(a2-3)Gal(b1-4)GlcNAc(b1-3)Gal(b1-4)GlcNAc(b1-3)GalNAc
In short: as §1

[19] = target: Neu5Ac(a2-3)Gal(b1-4)GlcNAc(b1-3)Gal(b1-4)GlcNAc(b1-3)[Neu5Ac(a2-3)Gal(b1-4)GlcNAc(b1-3)Gal(b1-4)GlcNAc(b1-6)]GalNAc
In short: as §1

[20] = target: Neu5Ac(a2-3)Gal(b1-4)GlcNAc(b1-3)Gal(b1-4)GlcNAc(b1-6)[Gal(b1-3)]GalNAc
In short: as §1

[21] = target: Neu5Ac(a2-3)Gal(b1-4)GlcNAc(b1-3)Gal(b1-4)[Fuc(a1-3)]GlcNAc
In short: as §1

[22] = target: Neu5Ac(a2-3)Gal(b1-4)GlcNAc(b1-3)GalNAc
In short: as §1

[23] = target: Neu5Ac(a2-3)Gal(b1-4)GlcNAc(b1-3)[Neu5Ac(a2-3)Gal(b1-4)GlcNAc(b1-6)]GalNAc
In short: as §1

[24] = target: Neu5Ac(a2-3)Gal(b1-4)GlcNAc(b1-6)GalNAc
In short: as §1

[25] = target: Neu5Ac(a2-3)Gal(b1-4)GlcNAc(b1-6)[Gal(b1-3)]GalNAc
In short: as §1

[26] = target: Neu5Ac(a2-3)Gal(b1-4)GlcNAc(b1-6)[Neu5Ac(a2-3)Gal(b1-3)]GalNAc
In short: as §1

[27] = target: Neu5Ac(a2-3)Gal(b1-4)GlcNAc6S
In short: as §1

[28] = target: Neu5Ac(a2-3)Gal(b1-4)[Fuc(a1-3)]GlcNAc
In short: as §1

[29] = target: Neu5Ac(a2-3)Gal(b1-4)[Fuc(a1-3)]GlcNAc(b1-2)Man
In short: as §1

[30] = target: Neu5Ac(a2-3)Gal(b1-4)[Fuc(a1-3)]GlcNAc(b1-3)Gal
In short: as §1

[31] = target: Neu5Ac(a2-3)Gal(b1-4)[Fuc(a1-3)]GlcNAc(b1-3)Gal(b1-4)GlcNAc
In short: as §1

[32] = target: Neu5Ac(a2-3)Gal(b1-4)[Fuc(a1-3)]GlcNAc(b1-3)Gal(b1-4)[Fuc(a1-3)]GlcNAc(b1-3)Gal(b1-4)[Fuc(a1-3)]GlcNAc
In short: as §1

[33] = target: Neu5Ac(a2-3)Gal(b1-4)[Fuc(a1-3)]GlcNAc(b1-3)GalNAc
In short: as §1

[34] = target: Neu5Ac(a2-3)Gal(b1-4)[Fuc(a1-3)]GlcNAc(b1-6)[Gal(b1-3)]GalNAc
In short: as §1

[35] = target: Neu5Ac(a2-3)Gal(b1-4)[Fuc(a1-3)]GlcNAc(b1-6)[Neu5Ac(a2-3)Gal(b1-3)]GalNAc
In short: as §1

[36] = target: Neu5Ac(a2-3)Gal(b1-4)[Fuc(a1-3)]GlcNAc6S
In short: as §1

[37] = target: Neu5Ac(a2-3)Gal6S(b1-4)GlcNAc
In short: as §1

B1: SP16664B-bot-474-25-474 (Bacteroides ovatus) (protein)
chain: CEEDIEIGNKIDESSYLASTQLSGLLLDENTNKNSSVIELRNNEYSTNVVFRLSKLPQKGVDVQIAVEESYAAIYNTIHETDFEVFPAANVKIANNGTFVLAPDDKVTPSVKVTLTAFDGMEEDKTYIVPLTVTSSTEGVTFTETSKHMVLLVQDYRNKPNTNKGEDAVQTVLYFEVNDTNPLNALEFLTESGKYFFDHIVLFAANINWDPEKQRVYLANNENVQFLLDNNDKYLQPLRKAGMKIIISILGNHDEAGVAQLSDMGAREFARELAAYCRAYNLDGVAFDDEYSNSPDLSNPWLASPSAYAGSRLMYECKAVMPEKIVSLYNLGNMYSSSLQVIDGIEPGQYCDYAVADYGGAAGPGTGMTLKQCAGMSIELRRGSGNSSESTARSRKEAGYGYYMFFALDPSLYGSQVYRCQSVCKGLYDETLVYPSYYYKKNSTEREAIN
- glycan array binding signal (z-score) [1]: -0.613
- glycan array binding signal (z-score) (Neu5Ac(a2-3)Gal(b1-4)Glc): 0.069
- glycan array binding signal (z-score) [2]: -0.053
- glycan array binding signal (z-score) [3]: -0.113
- glycan array binding signal (z-score) [4]: -0.077
- glycan array binding signal (z-score) [5]: -0.171
- glycan array binding signal (z-score) [6]: -0.365
- glycan array binding signal (z-score) [7]: -0.438
- glycan array binding signal (z-score) [8]: -0.231
- glycan array binding signal (z-score) [9]: 0.049
- glycan array binding signal (z-score) [10]: 0.174
- glycan array binding signal (z-score) [11]: -0.505
- glycan array binding signal (z-score) [12]: -0.032
- glycan array binding signal (z-score) [13]: -0.055
- glycan array binding signal (z-score) [14]: -0.703
- glycan array binding signal (z-score) [15]: 0.905
- glycan array binding signal (z-score) [16]: -0.276
- glycan array binding signal (z-score) [17]: 0.899
- glycan array binding signal (z-score) [18]: 0.067
- glycan array binding signal (z-score) [19]: 0.172
- glycan array binding signal (z-score) [20]: -0.297
- glycan array binding signal (z-score) [21]: -0.159
- glycan array binding signal (z-score) [22]: -0.138
- glycan array binding signal (z-score) [23]: -0.587
- glycan array binding signal (z-score) [24]: -0.362
- glycan array binding signal (z-score) [25]: -0.456
- glycan array binding signal (z-score) [26]: -0.44
- glycan array binding signal (z-score) [27]: -0.718
- glycan array binding signal (z-score) [28]: -0.162
- glycan array binding signal (z-score) [29]: -0.268
- glycan array binding signal (z-score) [30]: -0.583
- glycan array binding signal (z-score) [31]: -0.465
- glycan array binding signal (z-score) [32]: 0.057
- glycan array binding signal (z-score) [33]: 0.253
- glycan array binding signal (z-score) [34]: 0.544
- glycan array binding signal (z-score) [35]: 0.158
- glycan array binding signal (z-score) [36]: -0.402
- glycan array binding signal (z-score) [37]: -0.537
